Drawing on PubChem BioAssay (NCI), this text covers TGI, GI50 and outcome for 91 compounds.

Where “and” joins values, the source holds several entries; their conditions need not be identical. Equal values may be shown once.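 Each compound was tested at five concentrations against cells in 96-well plates for 48 hours. GI50: concentration for 50% inhibition of growth. TGI marks complete inhibition of growth.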 Calls of active or inactive are those of the source. No stated cut-off is given here; in the data, active means GI50 below about 0.43 µM; inactive means the rest.

The test system of the experiment is NCI-H322M lung. The experiment in a line: NCI-60 cell line screen, 48 h.
In the case of `O=c1c2ccccc2sc2nc(CCl)nn12`, the TGI is 25.9 µM.
Turning to `COC(=O)c1c(C(=O)OC)c2ccc(-c3ccc(Cl)cc3)nn2c1C(=O)c1ccc([N+](=O)[O-])cc1`, the TGI was more than 100 µM.
The compound `O=S(=O)(N/N=C/c1c(Cl)cccc1Cl)c1ccccc1` yielded a TGI of more than 100 µM.
Still for that read-out and setting: the value for `CC#C[C@@]1(O)CCCCC1O` (some centres undefined) was more than 100 µM; that for `Clc1ccc(Cl)c(N=Nc2cc3c4c(c2)CCCN4CCC3)c1` was more than 10 µM.
`Cc1ccncc1N1CCN(c2ccnc(Cl)c2)C1=O`: the GI50 is more than 100 µM and the TGI is more than 100 µM.
Turning to `CO/C(N)=C(\C#N)N=Cc1ccccc1`, the TGI is more than 100 µM.
The same measure, in the same setting: the value for `COc1ccc(O)cc1C=O` was more than 100 µM; that for `C[C@]12CC[C@@H]3c4ccc(OS(N)(=O)=O)cc4CC[C@H]3[C@@H]1CCC2=O` was more than 100 µM.
Still for that read-out and setting: the value for `CCN(CC)C(=O)c1c(Cl)cc(N(CC)CC)oc1=O` was more than 100 µM; that for `O=C1C=CC2(C=C1)CCC(=O)O2` was 44.3 µM; that for `CCOC(=O)c1cnc2oc(-c3ccc(OC)cc3)nn2c1=O` was more than 100 µM.
With `N#CCCN1C/C(=C/c2ccccc2)C(=O)/C(=C/c2ccccc2)C1`, the GI50 is 15.7 µM and the TGI is 29.8 µM.
The compound `O=C(O)c1cc2cc(OCc3ccccc3)ccc2[nH]1` came in with a TGI of more than 100 µM.
`CCOC(=O)c1c(O)cc(=O)[nH]c1N1CCOCC1` yielded a TGI of more than 100 µM.
Still for that read-out and setting: the value for `CCOC(=O)C1(C(C)=O)OC(=O)c2cnccc21` (centres undefined) was more than 100 µM.
For the compound `CN(C)c1ccc(/C=C2\N=C(N/N=C/c3ccc(N(C)C)cc3)NC2=O)cc1`, the TGI is more than 100 µM.
`COc1ccc(-c2nc3cc(F)ccc3s2)cc1O` displayed a TGI of more than 100 µM.
On the same count and under the same terms, the value for `COc1c(C)c(OC)c2c(c1O)[C@@H]1[C@@H]3Cc4c(OC)c(C)c(OC)c(O)c4[C@H](CNC(=O)c4ccc5ccccc5n4)N3[C@@H](C#N)[C@H](C2)N1C` was 0.00129 µM.
For `CS(C)(=O)=O`, the outcome was inactive.
`NC(Cc1ccc(OCc2ccccc2)cn1)C(=O)OCc1ccccc1` (centres undefined) had a TGI of more than 100 µM.
Still for that read-out and setting: then `CO[C@@H]1[C@H](O)CC[C@]2(CO2)[C@H]1[C@@]1(C)O[C@@H]1CC=C(C)C`, with more than 200 µM.
Consider `COC(=O)N1c2ccc3c(nc(Cc4ccccc4)n3[C@H]3CCC[C@H](C(=O)O)C3)c2CC[C@@H]1C`, for which the GI50 is 15.1 µM and the TGI is more than 100 µM.
The corresponding values for `COC(=O)c1ccc([C@H]2c3[nH]c4ccccc4c3C[C@H](C(=O)OC)N2C(=O)CCl)cc1` are 5.42 µM and 18.2 µM.
For `COc1ccc2[nH]c(C(=O)N3CCN(C(=O)OCc4ccc5c(Br)cc(Br)c(O)c5n4)CC3)cc2c1`, in that order: 1.59 µM and 3.04 µM.
As for `O=[N+]([O-])c1ccc(-c2nc(/C=N/N3CCCCC3)cs2)o1`, the TGI is more than 100 µM.
On the same count and under the same terms, the value for `Cc1c(C(=N)N)oc2ccccc12` was more than 100 µM.
Still for that read-out and setting: the value for `COc1ccc(-c2c3ccccc3c(-c3ccc(OC)cc3)c3ccccc23)cc1` was more than 100 µM; that for `COc1nc(C(=O)O)c(Cl)c(OC)c1Cl` was more than 100 µM.
Regarding `O=C1CS/C(=N/S(=O)(=O)c2ccc(N3N=C4c5ccccc5CC4C3c3cccs3)cc2)N(c2ccccc2)C1` (centres undefined), the GI50 is 16.9 µM and the TGI was 56.3 µM.
Compound `Cc1ccc(-n2c(C)n[nH]c2=O)cc1` displayed a TGI of more than 100 µM.
On the same count and under the same terms, the value for `C=C(C)C(=O)OC1C[C@H](COC(C)=O)C2CC=C(C)C2C2OC(=O)C(=C)[C@H]12` (some centres undefined) was 29.6 µM; that for `C/C1=C/C2OC(=O)C3(C)C2C(CC2(C)OC1=CC2=O)OC3(O)C(C)C` (centres undefined) was more than 100 µM.
In turn, `COc1ccc(COC(=O)NNC(=O)C2CSC(c3ccccc3)N2C(C)=O)cc1` (centres undefined) gave a TGI of more than 100 µM.
The same measure, in the same setting: then `O=C1CCC(=O)N1CNc1cccc(NCN2C(=O)CCC2=O)c1`, with more than 100 µM; and `CO/C=C(/C(=O)OC)c1ccccc1Oc1c(F)c(F)c(F)c(F)c1F`, with 85.5 µM.
In the case of `O=c1cc(N2CCOCC2)oc2c(-c3ccc4c(c3)OCCO4)csc12`, the GI50 was 0.471 µM and the TGI is 11.3 µM.
Consider `CC(C)=NN/C(=N\S(=O)(=O)c1cc2ccccc2s1)Nc1ccc(Cl)cc1`, for which the TGI is more than 100 µM.
Still for that read-out and setting: the value for `C=CCNC(=O)NNC(O)(C(=O)OCC)C(F)(F)F` (centres undefined) was more than 100 µM; that for `Nc1nc(Cl)c(/C=N\O)c(NCC2(CO)CC(=O)C2)n1` was more than 100 µM.
Same read-out and setting: then `COC(O)C(=O)c1c2c(cc3c1CCC3)CCCC2` (centres undefined), with 22.2 µM; and `COc1ccc(C2C(Cl)C(=O)N2NC(=O)c2ccccc2O)cc1` (centres undefined), with more than 100 µM.
As to `O=c1c2c3c(sc2n2c(CCl)nnc2n1Cc1ccccc1)CCCC3`, the GI50 is 6.13 µM and the TGI worked out at 16.8 µM.
For `Cc1ccc(S(=O)(=O)Oc2ccccc2-c2ccccc2)cc1`, in that order: 4.8 µM and more than 100 µM.
Turning to `CCOC(=O)C1C=C1C(C)(C)O` (centres undefined), the TGI is more than 10 µM.
On the same count and under the same terms, the value for `O=C(Nc1ccc(Cl)cc1)Oc1ccc(C(=S)Nc2ccc(Br)cc2)cc1` was 68.9 µM.
Same read-out and setting: then `CCCCCc1c(Cl)nc(Cl)nc1Cl`, with 31.3 µM; and `N#Cc1cc(-c2nc3cc(F)ccc3s2)ccc1N`, with 4.02 µM.
Turning to `N#Cc1ccccc1C#C/C=C\C#Cc1cccs1`, the GI50 is 29.8 µM and the TGI worked out at 96.6 µM.
`CCN1CC2(COC)C(O)CC(OC)C34C5CC6(O)C(OC)C=C(C5C6OC(=O)c5ccc(OC)c(OC)c5)C(C(OC)C23)C14` (centres undefined) came in with a TGI of more than 7.5 µM.
With `C[C@@H]1CCC2[C@@H](C)[C@@H](OC3CCC(O)CC3)OC3O[C@@]4(C)CCC1[C@]32OO4` (some centres undefined), the GI50 was more than 100 µM and the TGI is more than 100 µM.
In the case of `Cc1noc(NS(=O)(=O)c2ccc(NC(=O)c3ccc4[nH]c5ccccc5c(=O)c4c3)cc2)c1C`, the TGI is 90.9 µM.
On the same count and under the same terms, the value for `CCN(CCCl)CCCCNc1c2ccccc2nc2ccc(OC)cc12` was 4.75 µM; that for `COc1ccc2c(c1)CC[C@@H]1C2CC[C@]2(C)C(=O)N(CCN3CCCC3)C(=O)CC12` (some centres undefined) was 65.6 µM; that for `Cc1ccc(C(=O)CCl)o1` was more than 10 µM.
Still for that read-out and setting: the value for `O=C1/C(=C/c2ccc(Cl)cc2)CCC/C1=C\c1ccc(O)c(CN2CCCCC2)c1` was 49 µM; that for `COc1ccc(Nc2nc(C#N)c(N)s2)cc1` was more than 100 µM; that for `CC(C)(C)c1cc(C(C)(C)C)c2c(c1O)OC(=O)CS2` was 91.3 µM.
The same measure, in the same setting: the value for `CN(C)c1ccc(Cc2cc(C(C)(C)C)cc(C(C)(C)C)c2O)cc1` was 40.4 µM.
For `Cc1cc(C)c(S(=O)(=O)N2CCN(c3cc4c(cc3F)c(=O)c(C(=O)O)cn4C3CC3)CC2)c(C)c1`, the GI50 was 5.19 µM and the TGI is more than 100 µM.
Take `C=C1C2CC[C@@](C)(O)C2[C@H]2OC(=O)C(=C)[C@@H]2C[C@H]1O` (some centres undefined): the TGI is more than 100 µM.
Still for that read-out and setting: the value for `CN1N=C(c2ccncc2)OC1c1ccc(Cl)cc1Cl` (centres undefined) was more than 100 µM; that for `Cn1ccnc1Cn1cc(-c2cccc(-c3cn[nH]c3)c2)cn1` was more than 100 µM; that for `COC1CC(OC)C2OC(c3ccccc3)OCC2O1` (centres undefined) was more than 100 µM.
`Cc1ccc(C2C(Cl)C(=O)N2n2cnc3ccccc3c2=O)cc1` (centres undefined) registered a TGI of more than 100 µM.
Regarding `O=C(CC1(O)C(=O)N(Cc2ccccc2)c2ccc(Br)cc21)c1ccc(C(=O)NCC2CCC3(CC2)OOC2(CCCCC2)OO3)cc1` (centres undefined), the GI50 was 23.6 µM and the TGI is more than 100 µM.
The compound `C=C1CC[C@@H]2C(C)(C)C(O)CCC2(C)C1COc1ccc2ccc(=O)oc2c1` (some centres undefined) gave a TGI of 30.8 µM.
As for `CO/N=C/C=C\C(=O)N/C=C/C[C@H]1/C=C/[C@H](O)/C=C\C=C\c2cccc(O)c2C(=O)O1`, the GI50 is 1.48 µM and 1.45 µM; the TGI was more than 100 µM.
In the case of `CCOC(=O)C1N(S(=O)(=O)c2ccc(C)cc2)CCC12C(c1ccc(OC)c(OC)c1)=Nc1ccccc12` (centres undefined), the TGI was more than 100 µM.
The same measure, in the same setting: then `Cc1ccc2c3c4c(ccc13)C(C)(C)OC4=C(C(C)C)C2=O`, with more than 100 µM.
On to `Clc1ccc(CN2COc3c(ccc4cccnc34)C2)cc1Cl`, for which the GI50 was 1.52 µM and the TGI was found to be 15.5 µM.
In the case of `C[C@H](NS(=O)(=O)c1ccc(NC(=O)c2ccccc2)cc1)C(=O)O`, the TGI is more than 100 µM.
The same measure, in the same setting: then `CC(C)(C)c1ccc2c(c1)S(=O)(=O)Nc1cccc(c1)NS(=O)(=O)c1cc(C(C)(C)C)ccc1OCCOCCO2`, with more than 100 µM; and `CC(=O)O[C@H]1C(=O)[C@@]2(C)[C@H]([C@H](OC(=O)c3ccccc3)[C@]3(O)C[C@H](OC(=O)[C@H](O)[C@@H](NC(=O)c4ccoc4)c4ccccc4)C(C)=C1C3(C)C)[C@]1(OC(C)=O)CO[C@@H]1C[C@@H]2O`, with more than 100 µM.
For `COC(=O)/C(C#N)=C1\CCC(Nc2cccc(C(F)(F)F)c2)N1C` (centres undefined), the TGI was more than 100 µM.
`O=C(/C=C/c1ccc2c(c1)OCO2)NCc1ccco1` gave a TGI of more than 100 µM.
On the same count and under the same terms, the value for `C=C1C[C@H](O)[C@H]2C(C[Se]c3ccccc3)C(=O)O[C@@H]2[C@H]2[C@H](C)C(O)C[C@@H]12` (some centres undefined) was more than 100 µM; that for `COc1nc(SC)nc2c1C(O)n1c(nc3ccccc31)S2` (centres undefined) was 65.4 µM.
On the same count and under the same terms, then `Cn1cccc(C(=O)c2ccccc2)c1=O`, with more than 100 µM.
Same read-out and setting: then `CC(Cc1ccc(O)cc1)NCC(O)c1ccc(O)c(O)c1` (centres undefined), with more than 100 µM.
As to `CCOC(=O)C(C)(C)Oc1ccc(Cl)cc1`, the TGI is more than 1000 µM.
On the same count and under the same terms, the value for `Cc1ccc(N=Nc2c(O)c(S(=O)(=O)O)cc3cc(S(=O)(=O)O)ccc23)c(C)c1` was more than 100 µM; that for `Cc1cc(=O)[nH]c(NN2C(Cl)C(=O)C2c2ccc(O)cc2)n1` (centres undefined) was 23.1 µM.
Take `N#Cc1c(-c2ccc(Cl)cc2)cc(-c2cc(O)ccc2O)nc1N`: the GI50 was 1.22 µM and the TGI worked out at 18 µM.
As for `C[PH+](C)C.C[PH+](C)C.[Au]`, the TGI was more than 100 µM.
Still for that read-out and setting: then `Cc1nc2c(n1-c1ccc(Br)cc1)C(=O)c1ccccc1C2=O`, with more than 68.2 µM.
Still for that read-out and setting: then `COc1ccccc1C1(c2c(OC(C)C)c(=O)c2=O)SCCCS1`, with more than 100 µM; and `CC1(C)C(O)OC(O)C1(C)C` (centres undefined), with more than 100 µM; and `COc1cccc(NC(=O)c2c(SC)c(C#N)c(=O)n(N)c2N)c1`, with more than 100 µM.
In the case of `CCN(CC)CCCNc1ccc2ncn3c4ccc(O)cc4c(=O)c1c23`, the GI50 is 1.54 µM and the TGI amounted to 15.4 µM.
Turning to `NC(=O)[C@@H](CCC(F)(F)F)N(Cc1ccc(-c2ncon2)cc1F)S(=O)(=O)c1ccc(Cl)cc1`, the GI50 is more than 55.5 µM and the TGI was more than 100 µM.
